# Measured values from the supplement of paper PMC7125110.
# ± gives the standard error. Variants at the background level are over-represented here.
# B1: glmS ribozyme (parent)
# chain: AUAAAAGCGCCAGAACUACAGAAAUGUAGUUGACGAGGAGGAGGUUUAUCGAAUUUUCGGCGGAUGCCUCCAAA
# What was measured:
# Conditions in all cases: with glucosamine-6-phosphate
# glucosamine-6-phosphate [1] = variants of: B1; assay: self-cleavage kobs at 640 uM GlcN6P; higher = faster cleavage; RNA array
# How it was run: (§1)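 A hybridised Cy3 probe tracked barcoded ribozyme variants, transcribed in situ by E. coli RNA polymerase on sequenced MiSeq chips, at 37 °C. The variants received 40 μM to 10 mM glucosamine-6-phosphate in HEPES/KCl/Mg(OAc)2 buffer. kobs came from decay fits and kcat and KM from weighted Michaelis–Menten fits.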
# glucosamine-6-phosphate [2] = variants of: B1; assay: self-cleavage kobs at 2500 uM GlcN6P; higher = faster cleavage; RNA array
# How it was run: as §1
# glucosamine-6-phosphate [3] = variants of: B1; assay: self-cleavage kobs at 10000 uM GlcN6P; higher = faster cleavage; RNA array
# How it was run: as §1
# glucosamine-6-phosphate [4] = variants of: B1; assay: self-cleavage kobs at 160 uM GlcN6P; higher = faster cleavage; RNA array
# How it was run: as §1
Variant,self-cleavage kobs at 640 uM GlcN6P (glucosamine-6-phosphate [1]),self-cleavage kobs at 2500 uM GlcN6P (glucosamine-6-phosphate [2]),self-cleavage kobs at 10000 uM GlcN6P (glucosamine-6-phosphate [3]),self-cleavage kobs at 160 uM GlcN6P (glucosamine-6-phosphate [4])
AUAAAAGCGCCAGAACUACAGAAAUGUACUUGACGACGAGGAGGUUUAUCGAAUUUUAGGCGGAUGCCUCCAAA [G29C G37C C58A],< 1e-05 s⁻¹,–,–,–
AUAAAAGCGCCAGAACUACAGAAAUGUACUUGACGGGGAGGAGGUUUAUCGAAUUUUCGGCGGAUGCCUCCAAA [G29C A36G],< 1e-05 s⁻¹,< 1e-05 s⁻¹,< 1e-05 s⁻¹,–
AUAAAAGCGCCAGAACUACAGAAAUGUAUUUGACGAUGAAGAGUUUUAUCGUAUUUUCGGCGGAUGGCUCCAAA [G29U G37U G40A G44U A52U C67G],< 1e-05 s⁻¹,–,–,–
AUAAAAGCGCCAGAACUACAGAAAUGUAUUUGAUGAGGAGGAGGUUUAUCGAAUAUUCGGCGGAUGCCUCCAAA [G29U C34U U55A],< 1e-05 s⁻¹,< 1e-05 s⁻¹,–,–
AUAAAAGCGCCAGAACUACAGAAAUGUACUUGACGAGGAGGAGGUUUAUCGAAUUUUCUGCGGAUGCCUCCAAA [G29C G59U],< 1e-05 s⁻¹,–,–,< 1e-05 s⁻¹
AUAAAAGCGCCAGAACUACAGAAAUGUAUUUGUCAAGGAGGAGGUUUAUCGAUUUUUCGGCGGAUGCCUCCAAA [G29U A33U G35A A53U],< 1e-05 s⁻¹,< 1e-05 s⁻¹,–,–
AUAAAAGCGCCAGAACUACAGAAAUGUACUUGAGGCGGAGGAGGUUUAUCGAAUUUUCGGCGGAUGCCUCCAAA [G29C C34G A36C],< 1e-05 s⁻¹,< 1e-05 s⁻¹,–,–
AUAAAAGCGCCAGAACUACAGAAAUGUAUUUGACGAAGAGGAGGUUUAACGAAUUUUGGGCUGAUGCCUCCAAA [G29U G37A U49A C58G G62U],< 1e-05 s⁻¹,–,–,–
AUAAAAGCGCCAGAACUACAGAAAUGUACUCGACGAAGAGGAGGUUUAUCGAAUUUUCGGCGGAUGCCUCCAAA [G29C U31C G37A],< 1e-05 s⁻¹,–,–,–
AUAAAAGCGCCAGAACUACAGAAAUGUACUUGACGAGGAGGAGGUUUACGUAAUUUUCGGCGGACGCCUCCAAA [G29C U49C C50G G51U U65C],< 1e-05 s⁻¹,< 1e-05 s⁻¹,–,–
AUAAAAGCGCCAGAACUACAGAAAUGUAUUUGACGAGGAGGAGGUUUAUCGAAUUUUAGGCGGAUGCCUCCAAA [G29U C58A],5.13e-05 ± 1e-05 s⁻¹,0.000103 ± 1e-05 s⁻¹,0.000231 ± 3e-05 s⁻¹,3.39e-05 ± 1.2e-05 s⁻¹
AUAAAAGCGCCAGAACUACAGAAAUGUAUUUGACGAGGAGGCGGUUUAUCGAAUUUUCGGCGGAUGCCUCCAAA [G29U A42C],< 1e-05 s⁻¹,–,< 1e-05 s⁻¹,< 1e-05 s⁻¹
AUAAAAGCGCCAGAACUACAGAAAUGUAUUUAACGAUGAGGAGGUUUAUCGAAUUUUCGGCGGAUACCUCCAAA [G29U G32A G37U G66A],< 1e-05 s⁻¹,–,–,< 1e-05 s⁻¹
AUAAAAGCGCCAGAACUACAGAAAUGUACUUGGCGAGGAGGAGGUGUAUCGAAUUUUCGGCGGAUGCCUCCAAA [G29C A33G U46G],< 1e-05 s⁻¹,–,–,–
AUAAAAGCGCCAGAACUACAGAAAUGUAUUUUACGAGGAGGAGCUUUAUCGAAUUUUCGGCGGACGCCUCCAAA [G29U G32U G44C U65C],< 1e-05 s⁻¹,–,–,–
AUAAAAGCGCCAGAACUACAGAAAUGUACGUGACGAGGAGGUGGUUUAUCGAAUUUUCGGCAGAUGCCUCCAAA [G29C U30G A42U G62A],< 1e-05 s⁻¹,< 1e-05 s⁻¹,–,–
AUAAAAGCGCCAGAACUACAGAAAUGUAUUUGACGAGGAGGAGGUUUAUCGACUUUUCGGCGGAUGCCUCCAAA [G29U A53C],0.00015 ± 7.4e-05 s⁻¹,–,–,–
AUAAAAGCGCCAGAACUACAGAAAUGUAUUUGAUGAGGAGUAGGUUUAUCGAAAUUUCGGCGGAUGCCUCCAAA [G29U C34U G41U U54A],< 1e-05 s⁻¹,< 1e-05 s⁻¹,–,–
AUAAAAGCGCCAGAACUACAGAAAUGUAUUUGACGACGAGGCGGUAUAUCGAAUUUUCGGCGGAUGCCUCCAAA [G29U G37C A42C U46A],< 1e-05 s⁻¹,–,–,< 1e-05 s⁻¹
AUAAAAGCGCCAGAACUACAGAAAUGUAUUUGACGGGGAGGAGGUUUAUCGAAUUUGCGGCGGAUGCCUCCAAA [G29U A36G U57G],< 1e-05 s⁻¹,–,–,–
AUAAAAGCGCCAGAACUACAGAAAUGUACUUGACGAGGAGGAGGUUUAUCGAAUUUACGGCGGAUGCCUCCAAA [G29C U57A],< 1e-05 s⁻¹,–,–,–
